# Data published in the RNAGym collection of RNA variant scans (doi:10.1073/pnas.2313332121).
# This sample is rich in variants without activity.
# B1: TPR 5TU (parent)
# chain: GGAUCUUCUCGAUCUAACAAAAAAGACAAAUCUGCCACAAAGCUUGAGAGCAUCUUCGGAUGCAGAGGCGGCAGCCUUCGGUGGCGCGAUAGCGCCAACGUUCUCAACUAUGACACGCAAAACGCGUGCUCCGUUGAAUGGAGUUUAUCAUG
# Variants of: B1
# Assay: polymerase ribozyme fitness, log enrichment relative to wild type (log ratio); higher = more active; in vitro selection for triplet polymerase activity
# In short: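 Each subunit of a heterodimeric triplet polymerase ribozyme was mutagenized into a library by PCR, transcribed, and subjected to one round of in vitro selection, run in triplicate. Libraries were annealed with a biotinylated primer, the partner subunit and triplets, incubated frozen at −7 °C, and extended constructs were gel-excised, captured on streptavidin beads and recovered by RT-PCR. Input and output libraries were sequenced on Illumina, keeping genotypes with ≥10 input reads and ≥1 read per output. Fitness is log base 2 of genotype enrichment divided by wild-type enrichment, from inverse-variance-weighted replicate averages.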
row,Variant,polymerase ribozyme fitness (log ratio)
1,G11A A20U A26C U45A G46C U53G A91U C96A A106C C129G G136C,≤ -4.2
2,G11A A20U A40G C87U U139G,≤ -4.2
3,G11A A21C A40C C76A C85U G140C,≤ -4.2
4,G11A A21G C38U G94A A107U C114U,≤ -4.2
5,G11A A21U A73G C93U A120G U148C,≤ -4.2
6,G11A A21U A91U A98U U109A,≤ -4.2
7,G11A A23U G83U A91G U135A,≤ -4.2
8,G11A A26U G48A U109C A147G,≤ -4.2
9,G11A A28G C85G C149G,≤ -4.2
10,G11A A28U A52C C75G C79A C85G C87G A106G U134G G140A,≤ -4.2
11,G11A A28U C38U C85A A91C C132A G140A,≤ -4.2
12,G11A A28U U56G G59A G88A C96G A110U U148C,≤ -4.2
13,G11A A29G G58A C69U G71A C95G U135G U145A U151A,≤ -4.2
14,G11A A29U A49C C87A C99U C129U G141U,≤ -4.2
15,G11A A30C A98G,≤ -4.2
16,G11A A30C C99A C118U U145G,≤ -4.2
17,G11A A30G C32A G86A,≤ -4.2
18,G11A A39U A52C U78G G88U C96A G141U U146G,≤ -4.2
19,G11A A41C G46C G50C C99U A150G,≤ -4.2
20,G11A A41C G83U A121G A137C A150C,≤ -4.2
21,G11A A52G C93A A120U,≤ -4.2

row,Variant,polymerase ribozyme fitness (log ratio)
1,G11A A52G U56A G70C C103A C114G G143C U146G,≤ -4.2
2,G11A A89G G94A C105G G112C,≤ -4.2
3,G11A C14G A17G C27G C32A G48C G58C U82C,≤ -4.2
4,G11A C14G A30U A39U U45A C69U U109G U135C,≤ -4.2
5,G11A C27A A138C G141A,≤ -4.2
6,G11A C27G U53A G83U G86A G140A,≤ -4.2
7,G11A C27U A49G C96A C118U U145A,-4.19
8,G11A C43A A49U A52G G81A U90A C95A A120U U134G,≤ -4.2
9,G11A C51U A66U C79A A98U,≤ -4.2
10,G11A C51U G81C G92A U151A,≤ -4.2
11,G11A C54A C72G G92A C93U,≤ -4.2
12,G11A C57U A60G C85U C103G U151C,≤ -4.2
13,G11A C75G C85U C116U C118U U134A C149U,≤ -4.2
14,G11A C85U,-1.56
15,G11A C95A C96U A97G,≤ -4.2
16,G11A C96U,-1.9
17,G11A G25U G83C A107C,≤ -4.2
18,G11A G34A G86A C129G U134G G141C G152U,≤ -4.2
19,G11A G46A C51U C57G G152A,≤ -4.2
20,G11A G48A A52C G83A C87U A119C G124C,≤ -4.2
21,G11A G48C C108G U134A U144C,≤ -4.2

row,Variant,polymerase ribozyme fitness (log ratio)
1,G11A G50C C93U A97U G141U,≤ -4.2
2,G11A G50C G81A C85U G140U,≤ -4.2
3,G11A G50U C57U A60G C85U A89U A107C,≤ -4.2
4,G11A G62C U90G C96U,≤ -4.2
5,G11A G68A,≤ -4.2
6,G11A G70C A107U,≤ -4.2
7,G11A G94U A150U,-0.735
8,G11A U15C A16G C93A A120U U148G,≤ -4.2
9,G11A U15G U33C G34A G70C U82A C103G C108U C132U,≤ -4.2
10,G11A U33A C38U C87A,≤ -4.2
11,G11A U33C C87G C149G,≤ -4.2
12,G11A U33G A66G C75G A91U A107C,≤ -4.2
13,G11A U55A,-1.11
14,G11A U55A A73G,-1.2
15,G11A U55A U77G G83C A142U,≤ -4.2
16,G11A U55G G74C U77C A98U A115C,≤ -4.2
17,G11A U56A C99U G143C,-3.7
18,G11C A16G A21U A30C G34U U53G C79G A142U,≤ -4.2
19,G11C A16U A19U C79G C95G C96U A120U,≤ -4.2
20,G11C A16U C32G C36U G65U G71C G86U U90A C125A G143U,≤ -4.2
21,G11C A16U G46A C87U A89C G94A A113C,≤ -4.2

row,Variant,polymerase ribozyme fitness (log ratio)
1,G11C A17C C18A A21U U53A G65C C76G A98U C132U A142U,≤ -4.2
2,G11C A17G C32A C72U A113U G117U A122U U148G,≤ -4.2
3,G11C A17U C43A G50A C51G G67A C87G,≤ -4.2
4,G11C A19C A30U G84A G94U C116U,≤ -4.2
5,G11C A19C G46A G68A G88A C95U C99G C108U,≤ -4.2
6,G11C A19G A23U G42C U44A G48A G88A C93A,≤ -4.2
7,G11C A19U C27U U61A C93G A97U U101G U151G,≤ -4.2
8,G11C A19U C93A C95A A147C,≤ -4.2
9,G11C A20C A29C G46A C116A U145C,≤ -4.2
10,G11C A20C U31A U55G G83A A97U C105A,≤ -4.2
11,G11C A20U G83U A91G G143A A147C,≤ -4.2
12,G11C A20U U31A C35G C54U C85A A89C C95G,≤ -4.2
13,G11C A20U U56A U61A U77G A89U,≤ -4.2
14,G11C A22U A29G A39G A47C C76U U78A C103G C125G G140A U144C,≤ -4.2
15,G11C A23C G58A G81C C87A A138U,≤ -4.2
16,G11C A24C A39G G71C C95G C99U G112A G133U U135G A137C,≤ -4.2
17,G11C A24C C51G C87G A98G C99G A138U,≤ -4.2
18,G11C A24G U45A G80C G86U A89C C99U U101G,≤ -4.2
19,G11C A26G A91C G92A G152C,≤ -4.2
20,G11C A26U A40G A49G,≤ -4.2
21,G11C A26U C57G C69G,≤ -4.2
